Several values for one entry are separate records, joined by “and”; a condition that tells them apart may be missing. Identical values can stand only once. Hit rate of the full screen: of about 94,000 compounds, about 6,200 (6.6%) were called active. Inconclusive means that the source gave no clear call. Such entries were picked first, then a sample of the others. Calls come from the whole dose curve; as a rule, active = well fitted inhibition curve with a large enough effect; inconclusive = small, poorly fitted or top-dose-only effect; inactive = flat fitted curve, though single readings scatter. Potencies beside an inconclusive call are fits to weak or partial responses and may not hold up.
Experiment: Cytotoxic Profiling in HEK 293 Cell Line of Diverse Libraries Using Quantitative High-Throughput Screening; note: nearly all actives have a fitted effect of over 60% in size
Details: HEK 293 viability, ATP luminescence (CellTiter-Glo), 48-72 h; series mostly up to 115 µM
Method in brief: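 qHTS cytotoxicity; HEK 293, 250 cells/well; compound pinned; 48 or 72 hr, 37 degree Celsius, 5% CO2, 95% humidity; CellTiter-Glo, 10 min RT; luminescence (ATP).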
Potency is the fitted concentration of half-maximal effect; tags give direction and shape of the fitted curve.

Compound	Potency
COc1cc(=O)n2c(c1C(=O)Nc1cc(F)cc(F)c1)CCCC2	inactive
Cc1ccc2c(C(=O)Nc3ccc(N4CCOCC4)cc3)cc(NC(=O)C3CCC3)cc2n1	inconclusive: 89.1 µM [inhibitor, partial curve, poor fit]
Cc1nnc(-c2cc(-c3ccccc3Oc3ccccc3)ccn2)n1C1CCN(C)CC1	inconclusive: 63.1 µM [inhibitor, partial curve, poor fit]
CCn1ccnc1CN(CC1CCN(CCc2ccccc2C)CC1)C1CCCC1	inconclusive: 31.6 µM [inhibitor, full curve]
COc1ccc(-c2nc(C3CC3)nc3c2CCN(C(=O)c2ccccc2F)CC3)cc1	inconclusive: 100 µM [inhibitor, single point]
Cc1ccsc1C(=O)NCC1Cn2cccc2CN1C (stereo not given)	inconclusive: 100 µM [inhibitor, single point]
C1CCC(CN2CCCC(c3nc(CCOCC4CCOCC4)no3)C2)CC1 (stereo not given)	inconclusive: 79.4 µM [inhibitor, partial curve, poor fit]
NCc1ccc(-c2cccnc2)cc1	inactive
CCC(C(=O)N1CCC2(CC1)C(=O)N(CC(=O)NCC(C)C)CN2c1ccccc1)c1ccccc1 (stereo not given)	inconclusive: 50.1 µM [inhibitor, partial curve, poor fit]
COc1ccccc1-c1cc(C(=O)NCC#N)c2cnn(C)c2n1	inconclusive: 126 µM [inhibitor, single point]
CCOC(=O)c1cn(C2CN(S(=O)(=O)c3cccc(Cl)c3)C2)nn1	inconclusive: 89.1 µM [inhibitor, single point]
O=C(NCc1ccccc1)c1cnc2n1CCN(Cc1ccc(F)cc1)CC2	active: 28.2 µM
COc1cccc(Nc2ccc3c(n2)C(C)(C(=O)NC2CCC(O)CC2)CN(C)C3)c1 (stereo not given)	inconclusive: 126 µM [inhibitor, single point]
Cc1noc2c(Nc3ccc(C(N)=O)cc3)cc(-c3ccsc3)nc12	inconclusive: 31.6 µM [inhibitor, partial curve, poor fit]
CO[C@H]1C(=O)N(C(C)C)[C@H]1C1CCN(S(=O)(=O)c2cccs2)CC1	inconclusive: 50.1 µM [inhibitor, partial curve, poor fit]
O=C1NCCCCCCN(S(=O)(=O)c2ccc3c(c2)OCCO3)[C@H]2CCC[C@@H]12	inconclusive: 79.4 µM [inhibitor, partial curve, poor fit]
O=C(NCC(F)(F)F)C1CN(c2ccccc2)C(=O)N1 (stereo not given)	inconclusive: 63.1 µM [inhibitor, full curve]
CCOC(=O)C1=CN(CC(=O)Nc2ccccc2CC)S(=O)(=O)N=C1C	inactive
CC(C)NC(=O)[C@H]1CN(Cc2ccccc2)C[C@H]1C(=O)O	inactive
COc1ccccc1Nc1ccnc(N2CCC(NC(=O)NC(C)C)CC2)n1	inactive
CCN(CC)C(=O)N1CCCC1c1noc(COc2ccc(F)cc2)n1 (stereo not given)	inactive
O=C(NCc1cccc(Cl)c1)c1noc(-c2ccc3c(c2)OCO3)n1	active: 39.8 µM

Compound	Potency
COCCOc1ccc(-c2noc([C@@H]3CCCN3C3CCC3)n2)cn1	inconclusive: 100 µM [inhibitor, partial curve, poor fit]
O=c1n(-c2ccncc2)nc2n1CCN(CC1CC1)C2	inconclusive: 89.1 µM [inhibitor, partial curve, poor fit]
O=C(NCCc1ccc(F)cc1)C1CCCN(Cc2cccc(-c3cccs3)c2)C1 (stereo not given)	active: 28.2 µM and inconclusive: 44.7 µM [inhibitor, partial curve, poor fit]
Cn1cccc1CNC(=O)C1c2ccccc2C(=O)N(C2CCCCC2)C12CCCC2 (stereo not given)	inconclusive: 56.2 µM [inhibitor, partial curve, poor fit]
O=C(c1cccc(Cl)c1)N1CCN(c2ccc3nnc(-c4ccccc4)n3n2)CC1	inconclusive: 44.7 µM [inhibitor, partial curve, poor fit]
Cc1ccccc1C(=O)N1C[C@@H](F)C[C@H]1C(=O)N1CCCCC1	inactive
C=CCCC(CN1CCCOCC1)Oc1ccc(-c2ccccc2)nn1 (stereo not given)	inconclusive: 44.7 µM [inhibitor, partial curve, poor fit]
CC(=O)Nc1ccc(CN(CCN2CCCCC2)CC2CCCN(C3CCCC3)C2)cc1 (stereo not given)	inconclusive: 15.8 µM [inhibitor, full curve, poor fit]
O=C(CCC1CCN(S(=O)(=O)c2ccccc2)CC1)Nc1ccccc1	inconclusive: 28.2 µM [inhibitor, single point]
COc1cccc(OCCN(C)Cc2cn(-c3ccccc3)nn2)c1	inconclusive: 89.1 µM [inhibitor, single point]
COc1ccc(N(C)C(=O)c2c(C)oc3c2CN(Cc2ccc(F)cc2)CC3)cc1	inconclusive: 50.1 µM [inhibitor, partial curve, poor fit]
COc1ccc(CN2CC3(CCN(C(=O)Cc4c[nH]c5ccccc45)CC3)C2=O)cc1	inconclusive: 50.1 µM [inhibitor, partial curve, poor fit]
COCC1CN(Cc2ccccc2C(F)(F)F)CC12CCNCC2 (stereo not given)	inconclusive: 56.2 µM [inhibitor, partial curve, poor fit]
COc1cccc(-c2ccc(CN3CCCC(NC(=O)C4CCCC4)C3)cc2)c1 (stereo not given)	active: 20 µM
COCCN1CC(CO)C2(CCN(Cc3cc(F)c(F)cc3F)CC2)C1 (stereo not given)	inconclusive: 89.1 µM [inhibitor, single point]
COC[C@@H]1CN(c2ncccn2)C[C@H]1C(=O)N(C)Cc1cn(C)nc1C	inactive
CCCCc1ccc(NC(=O)CN2C(=O)NC(c3ccc(Cl)cc3)C3=C2COC3=O)cc1 (stereo not given)	active: 20 µM
COc1ccc(NC(=O)CN2C(=O)NC3(CCCCC3)C2=O)cc1	inconclusive: 79.4 µM [inhibitor, single point]
CC(C)(C)NC(=O)N1C[C@@H](Oc2cccnc2)C[C@H]1C(=O)N1CCCC1	inactive
O=C1NC2(CCN(Cc3ccsc3)CC2)COc2ccccc21	active: 63.1 µM
CCc1nc(CC)n2ccn(Cc3ccccn3)c(=O)c12	inactive
CN(C)c1cccc(C(=O)Nc2ncc(-c3cccc(F)c3)c3c2OCC3)c1	inconclusive: 11.2 µM [inhibitor, full curve, poor fit]

Compound	Potency
Cc1cccc2c1O[C@H]1[C@H](C(N)=O)CN(C(=O)OCC(C)(C)C)[C@@H]21	inconclusive: 50.1 µM [inhibitor, partial curve, poor fit]
Cc1nc(-c2ccc(F)cc2)n(CC(=O)Nc2ccc(F)cc2)c(=O)c1CCO	inconclusive: 89.1 µM [inhibitor, partial curve, poor fit]
CC(C)=CCn1c(-c2cc(C)oc2C)cn2cc(C(=O)N(C)CC(C)C)nc2c1=O	inconclusive: 44.7 µM [inhibitor, partial curve, poor fit]
COc1ccc(N2CC(COc3ccccc3)Oc3ncccc3[S+]2(=O)[O-])cc1 (stereo not given)	inactive
O=C(Cc1cccc(Cl)c1)NC1CN(c2ccnc3ccnn23)C1	inactive
O=C(N[C@@H]1COCC[C@@H]1OCc1ccccc1)c1ccc2ncsc2c1	inconclusive: 70.8 µM [inhibitor, single point]
CC(C)Oc1ccc(CNC(=O)c2noc(-c3ccc(F)cc3)n2)cc1	inconclusive: 50.1 µM [inhibitor, partial curve, poor fit]
CC(C)c1noc(-c2cn(C3CCN(C(=O)c4ccccc4F)CC3)nn2)n1	inactive
Cc1ccc(C(=O)N2CCCC3(C2)NC(=O)N(Cc2ccc(Cl)cc2)C3=O)cc1 (stereo not given)	inconclusive: 50.1 µM [inhibitor, partial curve, poor fit]
O=C(NCc1ccc(F)cc1)c1cc2c(s1)CCN(C(=O)c1ccc(F)cc1)C2	inconclusive: 50.1 µM [inhibitor, partial curve, poor fit]
O=C1OC[C@@H]2CCN(C3CCCC3)Cc3ccc(F)cc3N12	inactive
CCCC(=O)N1CCc2cn(C)c3cccc(c23)C1	inactive
CN(C)c1ccc(CN2CCC3(C2)NC(=O)c2ccccc2O3)cc1 (stereo not given)	inconclusive: 126 µM [inhibitor, single point]
C=CCc1ccccc1OCCN(C)Cc1ncnn1CC	inconclusive: 56.2 µM [inhibitor, partial curve, poor fit]
CN1CCCCCC(O)c2cc(C(=O)NCCc3ccncc3)ccc21 (stereo not given)	inconclusive: 79.4 µM [inhibitor, partial curve]
O=C1c2c(nc(CNc3cccnc3)n2Cc2ccccc2)NCCN1Cc1ccccc1	inconclusive: 100 µM [inhibitor, partial curve]
CCOc1ccc2c(n1)CCN(C(=O)Nc1ccc(C)c(C)c1)C2	inconclusive: 50.1 µM [inhibitor, partial curve, poor fit]
Cc1noc([C@H]2CCN(C(=O)Cc3c[nH]c4ccccc34)C[C@H]2NC(=O)C2CC2)n1	inconclusive: 100 µM [inhibitor, partial curve, poor fit]
Oc1ccc(Nc2ccnc(N3CC4CCC(C3)N4CC(F)(F)F)n2)cc1	inconclusive: 44.7 µM [inhibitor, partial curve]
CN(Cc1ccc(F)cc1)c1ccc2ncc(Nc3cccc(N[S+](C)(=O)[O-])c3)n2n1	active: 35.5 µM
O=C(c1cccc(F)c1)N1CC(Oc2ccc(-c3nc(-c4ccccc4)no3)cc2)C1	inconclusive: 89.1 µM [inhibitor, partial curve]

From PubChem BioAssay AID1345083 (National Center for Advancing Translational Sciences (NCATS), 2018)
